The campaign covered roughly 410,000 compounds. About 530 (0.13%) were called active. Where a call stands in place of a potency, no number is given. Inconclusive means that the source gave no clear call. Such entries were picked first, then a sample of the others. Calls come from the whole dose curve; as a rule, active = well fitted inhibition curve with a large enough effect; inconclusive = small, poorly fitted or top-dose-only effect, or another doubt; inactive = no such curve, though single readings can be large or run the other way. Where the call is inconclusive, the potency comes from a doubtful curve fit.
Assay: qHTS of GLP-1 Receptor Inverse Agonists: Cytotox Screen
Settings: HEK293 cAMP-luciferase reporter cells, luminescence, 24 h; series mostly up to 38.3 µM
Procedure, shortened: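 MLSMR compounds, 24 hr on cells at 37 deg C/5% CO2; luminescence after luciferase reagent (12 min RT). Inhibition counted as the undesired cytotoxic outcome.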
Potency is the fitted concentration of half-maximal effect.

SMILES | Potency
CCOC(=O)c1ccc(NC(=O)c2nc[nH]c2C(=O)N(C)Cc2ccccc2)cc1 | inconclusive: 3.55 µM [inhibitor, full curve, poor fit]
CSc1nc(Oc2ccc(=O)n(C)n2)nc(N(C)C)n1 | inactive
O=C(NCCN1CCC(n2c(=O)[nH]c3ccccc32)CC1)c1cc(F)cc(F)c1 | inactive
O=S(=O)(Cc1ncc(C(F)(F)F)cc1Cl)c1ccccc1 | inactive
Cc1ccccc1Nc1cc(C(=O)NCc2cccs2)c2ccccc2n1 | inactive
CCOc1ccc(Cl)cc1-c1cc(C(=O)NCc2cccc(C(F)(F)F)c2)[nH]n1 | inactive
S=C1NCCc2ccc(Cl)cc2C1c1ccccc1 (configuration not stated) | inconclusive: 10 µM [inhibitor, partial curve, poor fit]
COc1ccc(Nc2ncc(C(=O)N3CCN(c4ccc(F)cc4)CC3)c3ccccc23)cc1 | inactive
COc1ccc(CC(=O)NCc2n[nH]c(=S)n2-c2cccc(C)c2)cc1 | inactive
N#CCCn1cc(C(=O)CN2C(=O)NC3(CCc4ccccc43)C2=O)c2ccccc21 (configuration not stated) | inconclusive: 10 µM [inhibitor, single point]
O=C(CN1C(=O)c2ccccc2S1(=O)=O)NCc1cccnc1 | inconclusive: 28.2 µM [inhibitor, single point]
S=c1nc(-c2ccccc2)[nH]c2ccccc12 | inconclusive: 3.55 µM [inhibitor, full curve, poor fit]
Cc1cc(Cl)c2oc(C(=O)N3CCCCC3CCN3CCCC3=O)c(C)c2c1 (configuration not stated) | inconclusive: 28.2 µM [inhibitor, single point]
COc1cc2oc3ccccc3c2cc1N(CC(=O)N(C)C)S(=O)(=O)c1ccccc1 | inconclusive: 22.4 µM [inhibitor, single point]
CN1c2ccc([N+](=O)[O-])cc2N(C)C1(C)c1ccccc1 (configuration not stated) | inconclusive: 8.91 µM [inhibitor, partial curve, poor fit]
NNc1ccc(Cl)nn1 | inconclusive: 11.2 µM [inhibitor, single point]
CCc1nnc(N/N=C/c2c(C)[nH]c3ccccc23)n1N | inactive
CN(C)c1ccc(C(CNS(=O)(=O)c2ccc(F)cc2)c2c[nH]c3ccccc23)cc1 (configuration not stated) | inactive
O=C(N/N=C/C(Br)=C/c1ccccc1)c1ccccc1F | inconclusive: 28.2 µM [inhibitor, single point]
CCc1nc(-c2cc3ccc(C)cc3[nH]c2=O)no1 | inactive
CCN(C(=O)c1cc2c(s1)-c1c(C)cccc1OC2)c1ccccc1F | inactive
C=CCn1c(SCC(=O)N(C)C2CCS(=O)(=O)C2)nnc1-c1ccncc1 (configuration not stated) | inactive

Source: PubChem BioAssay AID624418 (National Center for Advancing Translational Sciences (NCATS), 2012)
